Data reported in the supplement of paper PMC3334620.
The full ranking holds about 33,000 sequences; the median of “E-score (-0.5 to 0.5)” is about -0.01, and the highest 2% start at about 0.26. Some of the results follow.

Biological target: Ste12 (UniProt P13574)
Experiment: PBM E-score (8-mer binding enrichment) (E-score (-0.5 to 0.5)); higher = stronger / more preferred TF binding; most listed sequences are background and not binding sites
Conditions: protein concentration: 200 nM; construct: GST-DNA-binding domain
Procedure, shortened: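 Masliner-normalised scans of fluorescent anti-GST signal were the basis for scoring. That signal came from GST-tagged yeast transcription factors applied at about 100-200 nM to double-stranded universal all-10-mer Agilent arrays on fresh or once-stripped slides. Each ungapped eight-base word, pooled with its reverse complement, received an E-score from the Universal PBM Analysis Suite.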

Row | Sequence | PBM E-score
1 | ATCTCCCA | 0.0349
2 | ATTAGGTA | 0.00656
3 | GCGCCGCA | 0.0532
4 | GAAGTGAA | 0.124
5 | GTCCGCTA | -0.102
6 | AGCGCCCA | -0.0404
7 | ACTAGGTG | -0.199
8 | GGGACGGA | -0.0613
9 | AAGTACGA | 0.0713
10 | CGGAACAG | 0.0291
11 | GAAGCCGC | -0.124
12 | TCCCACCA | -0.171
13 | GACTGCTC | -0.132
14 | CAGGCATA | -0.161
15 | GATAGCAC | -0.122
16 | AGAATCAG | 0.11
17 | ATGTATCA | 0.344
18 | GAGTAATC | -0.0473
19 | GTAAATCA | 0.227
20 | AAAATGTT | 0.139
21 | GCTGGACC | -0.196
22 | AACCGATT | 0.00541
23 | CGAACCAC | 0.089
24 | AGTGCTCC | -0.332
25 | ACTGCATA | 0.0528

Row | Sequence | PBM E-score
26 | CCGCCCAG | -0.00964
27 | GACTGCTA | -0.132
28 | ATTTAGCG | -0.0176
29 | ACCACAAC | 0.136
30 | CCCAGACC | -0.0973
31 | CGAGTCCA | -0.105
32 | GAGCGAAA | 0.251
33 | CTGGGCTC | -0.306
34 | ACTTAACT | 0.0917
35 | CTCGGGCC | 0.0292
36 | CAATGGAC | 0.0147
37 | ACTCGTAT | 0.0337
38 | AGAGACCC | -0.136
39 | GACCGTGC | -0.144
40 | GTGAGCGA | -0.0198
41 | AGGCTGAA | 0.0234
42 | CCGTCTCC | -0.191
43 | CAGGAGCG | -0.0463
44 | AAGGGTGA | 0.0401
45 | CACACTAA | 0.18
46 | GGACTCAA | -0.0497
47 | ATAACGAG | -0.0948
48 | GGAACGCA | 0.0551
49 | GTAACAGA | 0.334
50 | CGTTACAA | 0.314

Row | Sequence | PBM E-score
51 | CACTTAGA | -0.124
52 | CCCGCGAC | -0.0819
53 | AGTTAGCG | 0.0556
54 | CAGTGACA | -0.183
55 | ATATAAAT | 0.279
56 | AACCCAAA | 0.198
57 | ACTAGCTG | -0.0657
58 | GAGCGGCA | -0.0959
59 | CAAGCCCC | 0.0459
60 | ACTAGATC | -0.0559
61 | ATGCGTGG | -0.138
62 | ACCTAACG | -0.137
63 | ATCCGTGA | -0.0469
64 | ATCTAAGG | -0.0459
65 | GACCTCGA | 0.0486
66 | CCCGGCAG | -0.0392
67 | CAAGGATC | -0.0652
68 | AGACCGTA | -0.0932
69 | TTGAACAA | -0.0612
70 | AAAGTGTA | 0.135
71 | TCGCTTAA | 0.0471
72 | CGCCCTAG | 0.00597
73 | CACGTGGA | -0.00567
74 | AACTGTCC | 0.0193
75 | ATGACGCG | 0.146

Row | Sequence | PBM E-score
76 | CTCACTTA | -0.109
77 | ACGAAAGA | 0.125
78 | CTCGTAAA | 0.023
79 | CATGTTTC | 0.4
80 | TGATTGAA | 0.0929
81 | AGGCCCGA | -0.064
82 | ATTTATCA | 0.148
83 | AATCCTGT | 0.102
84 | AAGTCCTC | -0.188
85 | CAAGCTCA | -0.092
86 | AGCGGTGG | -0.167
87 | CGATTATA | 0.0996
88 | ACTTTAAA | 0.275
89 | AGACGTGG | -0.0816
90 | AGTGCTCA | -0.238
91 | AAAGCGGC | 0.054
92 | CTCTCTTA | 0.095
93 | CGAAGTTA | 0.0874
94 | CCTCACCG | -0.0545
95 | CCCCCGAC | 0.00152
96 | ACCGAGGT | -0.144
97 | CGAATAAC | -0.0358
98 | GTGTTCAA | -0.0179
99 | GAGCCAGC | -0.152
100 | TATGAGCA | -0.165

Row | Sequence | PBM E-score
101 | ATAGAGAG | -0.339
102 | TGTTGCAA | 0.211
103 | ACTTTTCC | 0.257
104 | GGTATACC | -0.0247
105 | CACCGAGC | 0.0891
106 | GGGGACCA | -0.0224
107 | AGTGTTCC | -0.0532
108 | CCATGCAC | -0.22
109 | CGTTATTC | 0.00284
110 | AGCATGTA | -0.227
111 | GCTGAGAA | -0.119
112 | CTTATGAC | -0.0278
113 | GAATTCGA | -0.11
114 | ATCGAGGC | -0.0693
115 | AGGAAAAG | 0.147
116 | GTCTGTCA | -0.0514
117 | CCCTCTGA | -0.0968
118 | CATCGTCA | 0.0528
119 | GTGGGCCA | -0.221
120 | GTTCAGCA | -0.0585
121 | ACGCCCGC | -0.0628
122 | AACTTTCG | -0.123
123 | GATGACAC | 0.168
124 | CAACGATG | -0.162
125 | AATGGATA | 0.0132

Row | Sequence | PBM E-score
126 | ACTGTTAA | -0.0538
127 | CTCTAGAG | -0.162
128 | ACAGCTCT | -0.144
129 | AATCTGCG | 0.0584
130 | AACAGTAA | 0.134
131 | ACTAGAGT | -0.103
132 | CCCTTTAC | -0.0978
133 | AAAAAGTA | 0.221
134 | ACACGTGA | 0.00701
135 | TAACTCGA | 0.187
136 | AACTTGTC | 0.0762
137 | CAGTAGCG | -0.0725
138 | CTAGGTAA | -0.177
139 | ACCGCTAG | -0.25
140 | AAACGAGG | 0.123
141 | ACTGCGAC | 0.186
142 | TATATTAA | 0.22
143 | AGATGTAT | 0.056
144 | ACAGAATC | -0.0849
145 | CACCTGCC | 0.0292
146 | GGTCCAAC | -0.0961
147 | AATCGCGG | 0.0746
148 | GACTGAAC | -0.0372
149 | CGTCAGGA | -0.223
150 | GATGTACA | 0.0128

Row | Sequence | PBM E-score
151 | ACCTGGTG | -0.0856
152 | AAAGGAGT | -0.0289
153 | GACGTCGC | -0.148
154 | CATGGGCC | -0.104
155 | AAAACCTT | 0.142
156 | GACAAGAA | 0.0759
157 | CCCAACTC | 0.127
158 | CAAGGTTC | -0.211
159 | GATCGTAA | -0.152
160 | AAAAGATG | 0.127
161 | CAGAACCA | -0.139
162 | CCGAGATC | -0.0305
163 | ATTACAGC | -0.159
164 | AACGCGAT | 0.0153
165 | ATTAGAAT | 0.156
166 | CGCCAGAG | -0.123
167 | CTGCAAAA | 0.0422
168 | ACGCATTG | -0.19
169 | CCCTTCCG | -0.0988
170 | ATATATCC | 0.153
171 | AGGTAGAT | -0.0117
172 | ACCGCGGT | -0.112
173 | GGGTGGAA | -0.0551
174 | GGTCGTAC | -0.112
175 | TATTAAAA | 0.341

Row | Sequence | PBM E-score
176 | GAAGACTC | -0.189
177 | CATTAGGA | -0.00125
178 | GTCCCGAC | 0.0737
179 | ACCGACGA | 0.0741
180 | GTGCTGAA | -0.0853
181 | GGAAGTAC | 0.0207
182 | CTATCCTC | -0.0976
183 | ATATCGGC | -0.0848
184 | TACCAGTA | -0.0789
185 | TCAGCGGA | 0.0108
186 | GTGTGGGA | 0.122
187 | CATTCATC | 0.125
188 | CGAAAACG | 0.0906
189 | CGTCAAAG | -0.00679
190 | CCTTATAA | 0.204
191 | AATATGTG | 0.217
192 | CACAGTCA | -0.168
193 | ACGTACCC | -0.0623
194 | CGTTTCAG | 0.482
195 | AGCATGAG | -0.0759
196 | CATTTACC | 0.127
197 | ACAGTACC | -0.13
198 | ACAACTCG | 0.0864
199 | ATCGAACC | 0.0183
200 | AGGATTAT | -0.0429

Row | Sequence | PBM E-score
201 | CCAAAAGC | 0.0544
202 | CAGGCATC | -0.0695
203 | AGCATACC | -0.0534
204 | AATGATCT | 0.0489
205 | GCCTTATA | 0.0261
206 | CGGATGGA | -0.0501
207 | AGCTCTGA | -0.166
208 | AATAGCAT | -0.0503
209 | AAAGAAAG | 0.19
210 | AGCGACCT | 0.0126
211 | GCTAGTCC | -0.139
212 | AATTCTCA | 0.126
213 | AGACGACC | -0.133
214 | AGGTGGAG | -0.18
215 | CGATGCGA | -0.0673
216 | GAAACAAA | 0.345
217 | CTAGCTAG | -0.23
218 | ACTTTCGC | 0.0806
219 | AACCAGGT | -0.00549
